We go through two molecules from article PMC2551611 (BMC Microbiology, 2008).

The target of the assay is T1, recombinant His-EF-Tu (LVS elongation factor Tu with polyhistidine tag) (Francisella tularensis LVS).
T1 construct: also called recombinant EF-Tu; His-fusion EF-Tu protein
Put plainly: pull-down. The note with it: both partners purified.

B1: biotin-labeled p63 peptide (last 63 amino acid residues of human nucleolin, RGG carboxy-terminal domain) (peptide)
peptide: not shown
notes: nucleolin, human, the last 63 amino acid residues (C-terminal RGG domain); The biotin came in as a Lys-biotin derivative, so there may be one extra biotinylated Lys before the 63 printed residues; also called biotinylated p63 peptide; RGG p63 carboxy-terminal domain of nucleolin; source: synthetic peptide; not shown: biotin, N-terminal, kept
With B1, the binding result is recorded as “binds”.

B2: unlabeled p63 peptide (last 63 amino acid residues of human nucleolin) (peptide)
peptide: not shown
notes: also called RGG domain of nucleolin; source: synthetic peptide
On to B2, for which the binding result is given as “binds”.
